Changes are numbered by the printed parent chain; changes in the protein carry UniProt numbers. Some of the results follow.
T1: RBFOX1 RRM RbFoxmut (Fox-RRM*) (Homo sapiens, UniProt Q9NWB1 109-208, R118D;E147R;N151S;E152T)
T1 sequence: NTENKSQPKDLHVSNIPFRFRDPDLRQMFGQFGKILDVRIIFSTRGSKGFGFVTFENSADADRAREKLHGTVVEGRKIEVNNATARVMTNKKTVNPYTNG

B1: UAUUCCG (DNA:RNA)
RNA: GGGAGACCGGAAUUCAGAUUGUCCUAUUCCGUUAAAUCCCGUCGUAGCCACCA
DNA 1: CAATCTGAATTCCGGTCTCCC
DNA 2: TGGTGGCTACGACGGGATT
B2: CCUUAUU (DNA:RNA)
RNA: B1 RNA with U25C, A26C, C29A, C30U, G31U
DNA 1: CAATCTGAATTCCGGTCTCCC
DNA 2: TGGTGGCTACGACGGGATT
B3: UCGAUCU (DNA:RNA)
RNA: B1 RNA with A26C, U27G, U28A, C29U, G31U
DNA 1: CAATCTGAATTCCGGTCTCCC
DNA 2: TGGTGGCTACGACGGGATT
B4: CGAAUGC (DNA:RNA)
RNA: GGGAGACCGGAAUUCAGAUUGUCCCGAAUGCUUAAAUCCCGUCGUAGCCACCA
DNA 1: CAATCTGAATTCCGGTCTCCC
DNA 2: TGGTGGCTACGACGGGATT
B5: ACAUCGU (DNA:RNA)
RNA: B4 RNA with C25A, G26C, A28U, U29C, C31U
DNA 1: CAATCTGAATTCCGGTCTCCC
DNA 2: TGGTGGCTACGACGGGATT
B6: UCGCGUA (DNA:RNA)
RNA: B1 RNA with A26C, U27G, U28C, C29G, C30U, G31A
DNA 1: CAATCTGAATTCCGGTCTCCC
DNA 2: TGGTGGCTACGACGGGATT
B7: AUGCACC (DNA:RNA)
RNA: B4 RNA with C25A, G26U, A27G, A28C, U29A, G30C
DNA 1: CAATCTGAATTCCGGTCTCCC
DNA 2: TGGTGGCTACGACGGGATT
B8: GUGGAAU (DNA:RNA)
RNA: GGGAGACCGGAAUUCAGAUUGUCCGUGGAAUUUAAAUCCCGUCGUAGCCACCA
DNA 1: CAATCTGAATTCCGGTCTCCC
DNA 2: TGGTGGCTACGACGGGATT
B9: AAAGUUU (DNA:RNA)
RNA: B4 RNA with C25A, G26A, A28G, G30U, C31U
DNA 1: CAATCTGAATTCCGGTCTCCC
DNA 2: TGGTGGCTACGACGGGATT
B10: UGGUACC (DNA:RNA)
RNA: B1 RNA with A26G, U27G, C29A, G31C
DNA 1: CAATCTGAATTCCGGTCTCCC
DNA 2: TGGTGGCTACGACGGGATT
B11: AAAAGGC (DNA:RNA)
RNA: B4 RNA with C25A, G26A, U29G
DNA 1: CAATCTGAATTCCGGTCTCCC
DNA 2: TGGTGGCTACGACGGGATT
B12: GAGAAUC (DNA:RNA)
RNA: B8 RNA with U26A, G28A, A30U, U31C
DNA 1: CAATCTGAATTCCGGTCTCCC
DNA 2: TGGTGGCTACGACGGGATT
B13: CUAAUUA (DNA:RNA)
RNA: B4 RNA with G26U, G30U, C31A
DNA 1: CAATCTGAATTCCGGTCTCCC
DNA 2: TGGTGGCTACGACGGGATT
B14: CUUCCCA (DNA:RNA)
RNA: B1 RNA with U25C, A26U, U28C, G31A
DNA 1: CAATCTGAATTCCGGTCTCCC
DNA 2: TGGTGGCTACGACGGGATT
B15: UGACUUU (DNA:RNA)
RNA: B4 RNA with C25U, A28C, G30U, C31U
DNA 1: CAATCTGAATTCCGGTCTCCC
DNA 2: TGGTGGCTACGACGGGATT
B16: CCUCAGC (DNA:RNA)
RNA: B4 RNA with G26C, A27U, A28C, U29A
DNA 1: CAATCTGAATTCCGGTCTCCC
DNA 2: TGGTGGCTACGACGGGATT
B17: GGCCUGG (DNA:RNA)
RNA: B4 RNA with C25G, A27C, A28C, C31G
DNA 1: CAATCTGAATTCCGGTCTCCC
DNA 2: TGGTGGCTACGACGGGATT
B18: CACGCAA (DNA:RNA)
RNA: B8 RNA with G25C, U26A, G27C, A29C, U31A
DNA 1: CAATCTGAATTCCGGTCTCCC
DNA 2: TGGTGGCTACGACGGGATT
B19: UUAGCUC (DNA:RNA)
RNA: B4 RNA with C25U, G26U, A28G, U29C, G30U
DNA 1: CAATCTGAATTCCGGTCTCCC
DNA 2: TGGTGGCTACGACGGGATT
B20: CCUUACU (DNA:RNA)
RNA: B1 RNA with U25C, A26C, C29A, G31U
DNA 1: CAATCTGAATTCCGGTCTCCC
DNA 2: TGGTGGCTACGACGGGATT
B21: CAAGUCC (DNA:RNA)
RNA: B4 RNA with G26A, A28G, G30C
DNA 1: CAATCTGAATTCCGGTCTCCC
DNA 2: TGGTGGCTACGACGGGATT
B22: AGCAUUA (DNA:RNA)
RNA: B4 RNA with C25A, A27C, G30U, C31A
DNA 1: CAATCTGAATTCCGGTCTCCC
DNA 2: TGGTGGCTACGACGGGATT
B23: ACUGGCG (DNA:RNA)
RNA: B1 RNA with U25A, A26C, U28G, C29G
DNA 1: CAATCTGAATTCCGGTCTCCC
DNA 2: TGGTGGCTACGACGGGATT
B24: CGAGCCU (DNA:RNA)
RNA: B4 RNA with A28G, U29C, G30C, C31U
DNA 1: CAATCTGAATTCCGGTCTCCC
DNA 2: TGGTGGCTACGACGGGATT
B25: CAGGGUG (DNA:RNA)
RNA: B8 RNA with G25C, U26A, A29G, A30U, U31G
DNA 1: CAATCTGAATTCCGGTCTCCC
DNA 2: TGGTGGCTACGACGGGATT
B26: AGAGGAA (DNA:RNA)
RNA: B4 RNA with C25A, A28G, U29G, G30A, C31A
DNA 1: CAATCTGAATTCCGGTCTCCC
DNA 2: TGGTGGCTACGACGGGATT
B27: UCGGUCC (DNA:RNA)
RNA: B4 RNA with C25U, G26C, A27G, A28G, G30C
DNA 1: CAATCTGAATTCCGGTCTCCC
DNA 2: TGGTGGCTACGACGGGATT
B28: ACCACAU (DNA:RNA)
RNA: B8 RNA with G25A, U26C, G27C, G28A, A29C
DNA 1: CAATCTGAATTCCGGTCTCCC
DNA 2: TGGTGGCTACGACGGGATT
B29: ACUUAUC (DNA:RNA)
RNA: B1 RNA with U25A, A26C, C29A, C30U, G31C
DNA 1: CAATCTGAATTCCGGTCTCCC
DNA 2: TGGTGGCTACGACGGGATT
B30: GUUUGUC (DNA:RNA)
RNA: B8 RNA with G27U, G28U, A29G, A30U, U31C
DNA 1: CAATCTGAATTCCGGTCTCCC
DNA 2: TGGTGGCTACGACGGGATT
B31: CUCAGUG (DNA:RNA)
RNA: B4 RNA with G26U, A27C, U29G, G30U, C31G
DNA 1: CAATCTGAATTCCGGTCTCCC
DNA 2: TGGTGGCTACGACGGGATT

The binders below were run against T1, RBFOX1 RRM RbFoxmut (Fox-RRM*) (assay: EMSA; HiTS-Eq, 1 nM pool, 10 min; buffer printed only for the single-RNA assays: 10 mM Tris pH 7.5, 150 mM NaCl, 3.4 mM EDTA, 0.001% NP-40, 30 C). Settings: tags: His6 N-terminal (pET28a); label: 5' 32P.
How it was run: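 A pool of RNA with 7 randomized nucleotides, 5′-radiolabelled and with DNA-annealed flanks, was equilibrated at 1 nM for 10 min in 50 µL with purified RbFox RRM, wild type or mutant, across increasing protein concentrations. Free RNA was separated by 8% native PAGE, excised, reverse-transcribed, barcoded by PCR and sequenced. Relative association constants were obtained from read-count changes of each RNA species versus the control reaction and normalised to the cognate motif.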

Binder | binding signal
B1 | 0.0799 KA relative to UGCAUGU
B2 | 0.107 KA relative to UGCAUGU
B3 | 0.0539 KA relative to UGCAUGU
B4 | 0.856 KA relative to UGCAUGU
B5 | 0.115 KA relative to UGCAUGU
B6 | 0.123 KA relative to UGCAUGU
B7 | 0.132 KA relative to UGCAUGU
B8 | 0.129 KA relative to UGCAUGU
B9 | 0.103 KA relative to UGCAUGU
B10 | 0.133 KA relative to UGCAUGU
B11 | 0.0727 KA relative to UGCAUGU
B12 | 0.247 KA relative to UGCAUGU
B13 | 0.117 KA relative to UGCAUGU
B14 | 0.0653 KA relative to UGCAUGU
B15 | 0.0741 KA relative to UGCAUGU
B16 | 0.101 KA relative to UGCAUGU

Binder | binding signal
B17 | 0.158 KA relative to UGCAUGU
B18 | 0.0878 KA relative to UGCAUGU
B19 | 0.0847 KA relative to UGCAUGU
B20 | 0.0968 KA relative to UGCAUGU
B21 | 0.0705 KA relative to UGCAUGU
B22 | 0.138 KA relative to UGCAUGU
B23 | 0.146 KA relative to UGCAUGU
B24 | 0.103 KA relative to UGCAUGU
B25 | 0.166 KA relative to UGCAUGU
B26 | 0.108 KA relative to UGCAUGU
B27 | 0.0845 KA relative to UGCAUGU
B28 | 0.107 KA relative to UGCAUGU
B29 | 0.102 KA relative to UGCAUGU
B30 | 0.305 KA relative to UGCAUGU
B31 | 0.137 KA relative to UGCAUGU

Reference: paper PMC9911399, “Two distinct binding modes provide the RNA-binding protein RbFox with extraordinary sequence specificity”
